The campaign covered roughly 220,000 compounds. About 2,300 (1%) were called active. Inconclusive results, whose numbers are uncertain, are shown with a selection of clear calls. The call rests on the fitted dose curve; in most records, active means well fitted inhibition curve with a large enough effect; inconclusive means small, poorly fitted or top-dose-only effect, or effect the other way; inactive means no such curve, though single readings can be large or run the other way. Potencies of inconclusive entries are left out as doubtful fits.
These compounds were tested against Neuropeptide S receptor (Homo sapiens) (UniProt Q6W5P4) (assay: qHTS Assay for Antagonists of the Neuropeptide S Receptor: cAMP Signal Transduction). Details: CHO-NPSR cells, cAMP TR-FRET, antagonist mode; activity change, negative = inhibition: at 38.3 µM (top of the series) unless noted.
Sequence of UniProt Q6W5P4 (Q6W5P4 whole entry, looked up): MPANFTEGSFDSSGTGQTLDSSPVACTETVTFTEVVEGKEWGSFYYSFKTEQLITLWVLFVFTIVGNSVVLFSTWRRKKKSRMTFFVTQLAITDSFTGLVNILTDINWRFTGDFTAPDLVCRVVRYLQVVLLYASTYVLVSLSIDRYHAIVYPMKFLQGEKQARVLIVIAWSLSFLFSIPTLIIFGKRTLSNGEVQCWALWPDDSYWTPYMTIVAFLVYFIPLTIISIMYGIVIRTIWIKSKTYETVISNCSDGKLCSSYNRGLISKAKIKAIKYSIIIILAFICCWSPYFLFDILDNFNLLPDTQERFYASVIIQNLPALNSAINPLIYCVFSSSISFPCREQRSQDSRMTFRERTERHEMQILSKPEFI
Further: nearly all actives have a fitted effect of over 50% in size.
On the % scale 0 is the no-effect control and ±100 the full control effect; potency means the concentration at half of the fitted maximal effect; tags describe the fitted curve by direction and shape.

| SMILES | activity change, negative = inhibition | Potency |
| --- | --- | --- |
| CCOc1ccc(-c2ccc(/C=C3/C(=N)N4C=CSC4=NC3=O)o2)c([N+](=O)[O-])c1 | inactive: -3.86% | – |
| COc1ccc(S(=O)(=O)n2nc(-c3cc(OC)c(OC)c(OC)c3)cc2N)cc1OC | inactive: -7.1% [at 46.1 µM] | – |
| CC(=O)n1cc(N(C(=O)CCl)c2ccc([N+](=O)[O-])cc2)c2ccccc21 | – | inconclusive [inhibitor, single point] |
| COc1ccc(-c2n[nH]c(C)c2-c2ccc(Cl)cc2)c(O)c1OC | – | inconclusive [inhibitor, partial curve] |
| COc1cccc(OCCCCCN2CCOCC2)c1 | – | inconclusive [inhibitor, partial curve] |
| Cn1c(SCC(=O)N/N=C/c2ccc([N+](=O)[O-])s2)nnc1-c1ccccc1 | – | inconclusive [inhibitor, single point] |
| Cc1ccc2c(c1)c1c(n2CC(O)Cn2nc(C)c(Br)c2C)CCCC1 (stereo unspecified) | – | inconclusive [inhibitor, single point] |
| COc1ccc(CN(C(=O)CSc2nnc(-c3c[nH]c4ccccc34)o2)c2ccc(F)cc2)cc1OC | – | inconclusive [inhibitor, single point] |
| COc1ccc(NC(=S)NC(NC(=O)c2ccccc2Cl)C(Cl)(Cl)Cl)c([N+](=O)[O-])c1 (stereo unspecified) | – | inconclusive [inhibitor, single point] |
| CN(C1CCCCC1)S(=O)(=O)c1ccc(NC(=O)C2CCCCC2)cc1 | – | inconclusive [inhibitor, single point] |
| COc1cc(CNC2CCCC2)cc(Cl)c1OCc1ccccc1Cl | – | inconclusive [inhibitor, single point] |
| Cc1ccc(NS(=O)(=O)c2cc(C(=O)NCCSc3ccc(C)cc3)ccc2C)cc1 | – | inconclusive [inhibitor, full curve, poor fit] |
| O=c1c2ccccc2nc2c3ccccc3c(NCc3ccco3)nn12 | – | inconclusive [inhibitor, single point] |
| CCCCCCn1c(SCC(C)C)nc2c1c(=O)[nH]c(=O)n2C | inactive: 6.48% [at 46.1 µM] | – |
| CCc1nnc(NS(=O)(=O)c2ccc(NC(=S)NC(=O)/C=C/c3ccc(C(C)C)cc3)cc2)s1 | – | inconclusive [inhibitor, single point] |
| Cc1ccc(NC(=O)COC(=O)CCc2c[nH]c(=O)[nH]2)cc1 | inactive: -3.52% [at 46.1 µM] | – |
| NC(=S)N=Nc1c(O)n(Cc2ccc(F)cc2)c2ccccc12 | – | inconclusive [inhibitor, single point] |
| CCCCCCCCCC[n+]1cccc2c3ccccc3ccc21 | – | inconclusive [inhibitor, single point] |
| Cc1cc(C)c(NC(=O)c2ccc(CN3CCc4ccccc4C3)cc2)c(C)c1 | – | inconclusive [inhibitor, single point] |
| COC(=O)C1=CN(C2CCCCC2)C=C(C(=O)OC)C1c1ccc2c(c1)OCO2 | – | inconclusive [activator, partial curve] |
| CC1=CC(=O)c2c(O)ccc(O)c2C1=O | – | inconclusive [activator, single point] |
| O=C(CNC(=O)c1ccccc1)N/N=C/c1cc(Br)ccc1O | inactive: -23.1% | – |
| Cc1ccc(NC(=O)/C=C/c2ccc3c(c2)OCO3)cc1S(=O)(=O)N1CCOCC1 | inactive: -17.9% | – |
| CC1=CN2C(=N)/C(=C/c3ccc(C)o3)C(=O)N=C2S1 | inactive: -23.5% | – |

| SMILES | activity change, negative = inhibition | Potency |
| --- | --- | --- |
| COc1ccccc1NC(=O)Nc1ccc(-n2ccc(C(F)(F)F)n2)cc1 | – | inconclusive [activator, single point] |
| CCN(CCNC(=O)C1CCCN(Cc2nc(-c3ccc(OC)cc3)oc2C)C1)c1ccccc1 (stereo unspecified) | – | inconclusive [inhibitor, single point] |
| COCCCNC(=O)/C=C/c1c(Cl)cccc1Cl | inactive: 6.14% | – |
| CC(C)N=C1SCC(C)(/C=N/O)S1 (stereo unspecified) | – | inconclusive [activator, partial curve] |
| CC(C)=CC1C(C(=O)Nc2ccc(Br)cn2)C1(C)C (stereo unspecified) | – | inconclusive [inhibitor, partial curve] |
| CCOc1ccc(/C=N/n2c(SC)nnc2-c2ccccc2)cc1OCC | – | inconclusive [inhibitor, single point] |
| Cc1cc2sc(C(=O)O)c(C)c2s1 | – | inconclusive [activator, single point] |
| O=[N+]([O-])c1cc(S(=O)(=O)C(F)(F)F)ccc1Sc1nc2ccccc2[nH]1 | – | inconclusive [inhibitor, single point] |
| O=C(NC1CCCCC1)Sc1ccc(Cl)cc1 | inactive: -8.92% [at 46.1 µM] | – |
| CN(C)/C=N/c1c(C(=O)NCc2ccccc2)nnn1Cc1ccccc1 | – | inconclusive [inhibitor, partial curve, poor fit] |
| O=C(CSc1nnc(-c2ccncc2)o1)c1cccc([N+](=O)[O-])c1 | inactive: 12.8% | – |
| CSC1=NSC2=NC(=O)/C(=C/c3coc4ccccc4c3=O)C(=N)N12 | inactive: -41.4% | – |
| CCOC(=O)N1CCC(N2C(=O)c3ccccc3C2Nc2c(C)cccc2C)CC1 (stereo unspecified) | – | inconclusive [inhibitor, partial curve, poor fit] |
| COc1ccc([C@H]2[C@H](C(=O)OC(C)(C)C)N3N=Cc4ccccc4C3C23C(=O)c2ccccc2C3=O)c(OC)c1 (stereo partly specified) | inactive: -21.1% | – |
| CCOc1ccc(NS(=O)(=O)c2cc(Cl)ccc2OC)cc1 | – | inconclusive [inhibitor, single point] |
| CC(C)N(C(=O)COC(=O)c1cc(Cl)cc(Cl)c1N)C(C)C | – | inconclusive [inhibitor, single point] |
| O=C(c1cnc2nc3ccccc3n2c1)c1cc(F)ccc1O | inactive: 13.6% | – |
| Cc1cccc(N(Cc2cc3ccccc3[nH]c2=O)C(=O)c2ccco2)c1C | – | inconclusive [inhibitor, single point] |
| CCn1ccnc1CN(C)Cc1cn(-c2cc(C)ccc2C)nc1-c1ccccc1 | – | inconclusive [activator, single point] |
| Cc1cc(C(=O)OCC(=O)c2ccc(Br)s2)no1 | – | inconclusive [activator, single point] |
| CC(=O)Nc1ccc(C2=NN(C)C(=NCc3ccccc3)SC2)cc1 | inactive: -26.2% | – |
| COc1cccc(N(C(=O)C2COc3ccccc3O2)C(C(=O)NC2CCCCC2)c2ccc(O)cc2)c1 (stereo unspecified) | – | inconclusive [inhibitor, single point] |
| O=C(CN1CCCC1)Nc1ccc(Oc2ccc(NC(=O)CN3CCCC3)cc2)cc1 | inactive: 9.02% [at 46.1 µM] | – |
| Clc1ccc(N2CCN(c3cnc4ccccc4n3)CC2)cc1 | – | inconclusive [inhibitor, single point] |

| SMILES | activity change, negative = inhibition | Potency |
| --- | --- | --- |
| CCC(CC)c1nn2c(N)c(/C=C3\C(C)=Nc4ccccc43)c(=O)nc2s1 | inactive: -16.7% | – |
| CCOC(=O)C1=C(C)NC(=O)NC1c1ccc2c(c1)OCCO2 (stereo unspecified) | inactive: -8.78% [at 46.1 µM] | – |
| CCOC(=O)CNC(=O)C1CCCN(c2ncccn2)C1 (stereo unspecified) | inactive: -6.31% [at 46.1 µM] | – |
| CCOc1ccccc1NC(=O)CSc1nc(N)c(C#N)cc1C#N | – | inconclusive [activator, single point] |
| CCCC(=O)Nc1nc(C)c(-c2csc(Nc3ccccc3C)n2)s1 | inactive: -12.4% [at 46.1 µM] | – |
| COc1ccc(/C(C)=N/Nc2cccc(C(=O)O)c2)cc1OC | inactive: 10.6% | – |
| CN(c1nc2ccccc2n2c(-c3ccco3)nnc12)S(=O)(=O)c1ccccc1 | – | inconclusive [inhibitor, single point] |
| COc1ccc(/C(C#N)=C/c2c(-c3ccc(Cl)cc3)nc3c(C)cccn23)cc1 | – | inconclusive [inhibitor, partial curve] |
| C=CCCC(=O)Nc1nc(C)c(-c2csc(Nc3ccccc3OC)n2)s1 | inactive: -28.4% [at 46.1 µM] | – |
| CCOC(=O)C1CCCN(C(=O)c2cc(Nc3ccc(OC)cc3)nc3ccccc23)C1 (stereo unspecified) | – | inconclusive [inhibitor, single point] |
| c1ccc(C2=NNC(=NCc3ccc4c(c3)OCO4)SC2)cc1 | – | inconclusive [inhibitor, single point] |
| COc1ccc(CCn2c(=S)[nH]c3ccc(N4CCOCC4)cc3c2=O)cc1OC | inactive: -34.2% | – |
| Cc1ccc(CSc2nnc(SCC(=O)N/N=C/c3ccc(C(=O)O)cc3)s2)cc1 | inactive: 6.42% | – |
| O=C(O)CCCCCN1C(=O)/C(=C\c2ccncc2)SC1=S | inactive: 2.51% | – |
| CC(=O)C1=C(c2ccccc2)OC(N)=C(C#N)C1c1ccccc1C (stereo unspecified) | – | inconclusive [inhibitor, single point] |
| O=C(c1ccc(Cn2cc(Cl)cn2)cc1)N1CCN(c2ccccc2)CC1 | – | inconclusive [inhibitor, partial curve] |
| N#Cc1ccccc1/C=N/Nc1nc(-c2ccccc2)c2cc(Br)ccc2n1 | – | inconclusive [inhibitor, single point] |
| CC(C)(C)NC(=O)C(c1cccs1)N(Cc1ccc(F)cc1)C(=O)c1csnn1 (stereo unspecified) | – | inconclusive [activator, single point] |
| CCc1ccc(C2NC(=S)NC3=C2C(=O)CCC3)cc1 (stereo unspecified) | inactive: 5.23% | – |
| COc1ccc(-n2ncc3c(NCc4ccc5c(c4)OCO5)ncnc32)cc1 | – | inconclusive [activator, single point] |
| N=C(c1cccc([N+](=O)[O-])c1)N1CCCCC1 | inactive: 11.1% | – |
| O=C(C1=C[C@H](c2coc3ccccc3c2=O)C[C@H](OCCCCO)O1)N1CCN(Cc2ccccc2)CC1 | – | inconclusive [activator, partial curve] |
| Cc1cccc(C2CC(c3ccc(Cl)cc3)Nc3nc(N)nn32)c1 (stereo unspecified) | inactive: -17.5% [at 46.1 µM] | – |

Reference: PubChem BioAssay AID1461 (National Center for Advancing Translational Sciences (NCATS), 2008)
